The campaign covered roughly 360,000 compounds. About 7,500 (2.1%) were called active. Inconclusive means that the source gave no clear call. Such entries were picked first, then a sample of the others. The call rests on the fitted dose curve; in most records, active means well fitted cell-killing curve with a large enough effect; inconclusive means small, poorly fitted or top-dose-only effect, or effect the other way, or another doubt; inactive means no such curve, though single readings can be large or run the other way. No potency is given beside an inconclusive call; the fits are too rough.
Experiment: qHTS for induction of synthetic lethality in tumor cells producing 2HG: qHTS for the HT-1080-IDH1KD cell line
Conditions: HT-1080 IDH1 knockdown viability, ATP luminescence, 48 h; series mostly up to 46.1 µM
Outline: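 Cytotoxicity counter-line: IDH1KD HT-1080, 48 h, CellTiter-Glo. Curves classed by r2, magnitude and activity.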
Potency means the concentration at half of the fitted maximal effect; tags describe the fitted curve by direction and shape.

Row | Compound | Potency
1 | COc1ccccc1OP(=O)(Nc1cccnc1)Oc1ccccc1OC | inconclusive [cytotoxic, partial curve]
2 | COc1ccc(C(c2nnnn2-c2c(C)cccc2C)N2CCC3(CC2)C(=O)NCN3c2ccccc2)cc1 (configuration not stated) | inconclusive [cytotoxic, single point]
3 | COCCCn1c(N)c(C(=O)NCCC(C)C)c2nc3ccccc3nc21 | inconclusive [cytotoxic, single point]
4 | COc1ccc(NC2Oc3cc4c(cc3C(c3cc(OC)c(OC)c(OC)c3)C2C)OCO4)cc1 (configuration not stated) | inconclusive [cytotoxic, full curve]
5 | O=c1[nH]sc2cc(F)ccc12 | inconclusive [cytotoxic, single point]
6 | CC(C)CN1Cc2cc(N3CCCCC3)ccc2-n2nncc2C1 | inactive
7 | Cc1c(NC(=O)C(C)OC(=O)Cc2ccccc2)c(=O)n(-c2ccccc2)n1C (configuration not stated) | inactive
8 | CC[C@@H](C(=O)[C@@H](C)[C@@H](O)[C@H](C)[C@@H]1O[C@@H]([C@@H](CC)C(=O)O)CC[C@@H]1C)[C@H]1O[C@]2(C=C[C@@H](O)[C@]3(CC[C@@](C)([C@H]4CC[C@](O)(CC)[C@H](C)O4)O3)O2)[C@H](C)C[C@@H]1C | active: 2.91 µM
9 | CN(C)[C@@H]1C(=O)C(C(N)=O)=C(O)[C@@]2(O)C(=O)C3=C(O)c4c(O)cccc4[C@@](C)(O)C3C[C@@H]12 (some centres not stated) | inconclusive [cytotoxic, single point]
10 | Cc1ccc(N)c(C(=O)c2ccc(Br)cc2)c1 | inactive
11 | COc1ccc(CC2C(=O)NC(C)C(=O)N(C)C3C(=O)N(C)C(Cc4ccc(O)c(c4)Oc4ccc(cc4)C3O)C(=O)NC(C)C(=O)NC(C)C(=O)N2C)cc1 (configuration not stated) | active: 0.0731 µM
12 | CCOC(=O)C(NS(=O)(=O)c1ccc(C)cc1)(C(F)(F)F)P(=O)(OCC(C)C)OCC(C)C (configuration not stated) | inconclusive [cytotoxic, single point]
13 | O=C(CCc1nnc2ccc(NCc3ccccc3)nn12)N1CCC2(CC1)OCCO2 | inactive
14 | Cc1ccccc1-n1c(CNc2ccccc2)nc2ccccc2c1=O | inconclusive [cytotoxic, single point]
15 | CC(=O)C1C(N2CC2)CC2C3CCC4=CC(=O)CCC4(C)C3CCC21C (configuration not stated) | inactive
16 | Cc1ccc(C2NC(=O)NC3=C2CCc2ccccc23)cc1 (configuration not stated) | inconclusive [cytotoxic, single point]
17 | O=S(=O)(c1ccc(Nc2ccc(-c3ccc4c(c3)OCCO4)nn2)cc1)N1CCCC1 | inconclusive [cytotoxic, partial curve]
